B1: NDP, Q00604 (protein)
chain: MRKHVLAASFSMLSLLVIMGDTDSKTDSSFIMDSDPRRCMRHHYVDSISHPLYKCSSKMVLLARCEGHCSQASRSEPLVSFSTVLKQPFRSSCHCCRPQTSKLKALRLRCSGGMRLTATYRYILSCHCEECNS
B2: ZKSCAN3, Q9BRR0 (protein)
chain: MARELSESTALDAQSTEDQMELLVIKVEEEEAGFPSSPDLGSEGSRERFRGFRYPEAAGPREALSRLRELCRQWLQPEMHSKEQILELLVLEQFLTILPGNLQSWVREQHPESGEEVVVLLEYLERQLDEPAPQVSGVDQGQELLCCKMALLTPAPGSQSSQFQLMKALLKHESVGSQPLQDRVLQVPVLAHGGCCREDKVVASRLTPESQGLLKVEDVALTLTPEWTQQDSSQGNLCRDEKQENHGSLVSLGDEKQTKSRDLPPAEELPEKEHGKISCHLREDIAQIPTCAEAGEQEGRLQRKQKNATGGRRHICHECGKSFAQSSGLSKHRRIHTGEKPYECEECGKAFIGSSALVIHQRVHTGEKPYECEECGKAFSHSSDLIKHQRTHTGEKPYECDDCGKTFSQSCSLLEHHRIHTGEKPYQCSMCGKAFRRSSHLLRHQRIHTGDKNVQEPEQGEAWKSRMESQLENVETPMSYKCNECERSFTQNTGLIEHQKIHTGEKPYQCNACGKGFTRISYLVQHQRSHVGKNILSQ
B3: KCNIP3, Q9Y2W7 (protein)
chain: MQPAKEVTKASDGSLLGDLGHTPLSKKEGIKWQRPRLSRQALMRCCLVKWILSSTAPQGSDSSDSELELSTVRHQPEGLDQLQAQTKFTKKELQSLYRGFKNECPTGLVDEDTFKLIYAQFFPQGDATTYAHFLFNAFDADGNGAIHFEDFVVGLSILLRGTVHEKLKWAFNLYDINKDGYITKEEMLAIMKSIYDMMGRHTYPILREDAPAEHVERFFEKMDRNQDGVVTIEEFLEACQKDENIMSSMQLFENVI
B4: SMAD6, O43541 (protein)
chain: MFRSKRSGLVRRLWRSRVVPDREEGGSGGGGGGDEDGSLGSRAEPAPRAREGGGCGRSEVRPVAPRRPRDAVGQRGAQGAGRRRRAGGPPRPMSEPGAGAGSSLLDVAEPGGPGWLPESDCETVTCCLFSERDAAGAPRDASDPLAGAALEPAGGGRSREARSRLLLLEQELKTVTYSLLKRLKERSLDTLLEAVESRGGVPGGCVLVPRADLRLGGQPAPPQLLLGRLFRWPDLQHAVELKPLCGCHSFAAAADGPTVCCNPYHFSRLCGPESPPPPYSRLSPRDEYKPLDLSDSTLSYTETEATNSLITAPGEFSDASMSPDATKPSHWCSVAYWEHRTRVGRLYAVYDQAVSIFYDLPQGSGFCLGQLNLEQRSESVRRTRSKIGFGILLSKEPDGVWAYNRGEHPIFVNSPTLDAPGGRALVVRKVPPGYSIKVFDFERSGLQHAPEPDAADGPYDPNSVRISFAKGWGPCYSRQFITSCPCWLEILLNNPR
B5: REXO4, Q9GZR2 (protein)
chain: MGKAKVPASKRAPSSPVAKPGPVKTLTRKKNKKKKRFWKSKAREVSKKPASGPGAVVRPPKAPEDFSQNWKALQEWLLKQKSQAPEKPLVISQMGSKKKPKIIQQNKKETSPQVKGEEMPAGKDQEASRGSVPSGSKMDRRAPVPRTKASGTEHNKKGTKERTNGDIVPERGDIEHKKRKAKEAAPAPPTEEDIWFDDVDPADIEAAIGPEAAKIARKQLGQSEGSVSLSLVKEQAFGGLTRALALDCEMVGVGPKGEESMAARVSIVNQYGKCVYDKYVKPTEPVTDYRTAVSGIRPENLKQGEELEVVQKEVAEMLKGRILVGHALHNDLKVLFLDHPKKKIRDTQKYKPFKSQVKSGRPSLRLLSEKILGLQVQQAEHCSIQDAQAAMRLYVMVKKEWESMARDRRPLLTAPDHCSDDA
B6: PTH, P01270 (protein)
chain: MIPAKDMAKVMIVMLAICFLTKSDGKSVKKRSVSEIQLMHNLGKHLNSMERVEWLRKKLQDVHNFVALGAPLAPRDAGSQRPRKKEDNVLVESHEKSLGEADKADVNVLTKAKSQ
B7: NR0B1, P51843 (protein)
chain: MAGENHQWQGSILYNMLMSAKQTRAAPEAPETRLVDQCWGCSCGDEPGVGREGLLGGRNVALLYRCCFCGKDHPRQGSILYSMLTSAKQTYAAPKAPEATLGPCWGCSCGSDPGVGRAGLPGGRPVALLYRCCFCGEDHPRQGSILYSLLTSSKQTHVAPAAPEARPGGAWWDRSYFAQRPGGKEALPGGRATALLYRCCFCGEDHPQQGSTLYCVPTSTNQAQAAPEERPRAPWWDTSSGALRPVALKSPQVVCEAASAGLLKTLRFVKYLPCFQVLPLDQQLVLVRNCWASLLMLELAQDRLQFETVEVSEPSMLQKILTTRRRETGGNEPLPVPTLQHHLAPPAEARKVPSASQVQAIKCFLSKCWSLNISTKEYAYLKGTVLFNPDVPGLQCVKYIQGLQWGTQQILSEHTRMTHQGPHDRFIELNSTLFLLRFINANVIAELFFRPIIGTVSMDDMMLEMLCTKI
B8: CAMTA1, Q9Y6Y1 (protein)
chain: MWRAEGKWLPKTSRKSVSQSVFCGTSTYCVLNTVPPIEDDHGNSNSSHVKIFLPKKLLECLPKCSSLPKERHRWNTNEEIAAYLITFEKHEEWLTTSPKTRPQNGSMILYNRKKVKYRKDGYCWKKRKDGKTTREDHMKLKVQGVECLYGCYVHSSIIPTFHRRCYWLLQNPDIVLVHYLNVPAIEDCGKPCGPILCSINTDKKEWAKWTKEELIGQLKPMFHGIKWTCSNGNSSSGFSVEQLVQQILDSHQTKPQPRTHNCLCTGSLGAGGSVHHKCNSAKHRIISPKVEPRTGGYGSHSEVQHNDVSEGKHEHSHSKGSSREKRNGKVAKPVLLHQSSTEVSSTNQVEVPDTTQSSPVSISSGLNSDPDMVDSPVVTGVSGMAVASVMGSLSQSATVFMSEVTNEAVYTMSPTAGPNHHLLSPDASQGLVLAVSSDGHKFAFPTTGSSESLSMLPTNVSEELVLSTTLDGGRKIPETTMNFDPDCFLNNPKQGQTYGGGGLKAEMVSSNIRHSPPGERSFSFTTVLTKEIKTEDTSFEQQMAKEAYSSSAAAVAASSLTLTAGSSLLPSGGGLSPSTTLEQMDFSAIDSNKDYTSSFSQTGHSPHIHQTPSPSFFLQDASKPLPVEQNTHSSLSDSGGTFVMPTVKTEASSQTSSCSGHVETRIESTSSLHLMQFQANFQAMTAEGEVTMETSQAAEGSEVLLKSGELQACSSEHYLQPETNGVIRSAGGVPILPGNVVQGLYPVAQPSLGNASNMELSLDHFDISFSNQFSDLINDFISVEGGSSTIYGHQLVSGDSTALSQSEDGARAPFTQAEMCLPCCSPQQGSLQLSSSEGGASTMAYMHVAEVVSAASAQGTLGMLQQSGRVFMVTDYSPEWSYPEGGVKVLITGPWQEASNNYSCLFDQISVPASLIQPGVLRCYCPAHDTGLVTLQVAFNNQIISNSVVFEYKARALPTLPSSQHDWLSLDDNQFRMSILERLEQMERRMAEMTGSQQHKQASGGGSSGGGSGSGNGGSQAQCASGTGALGSCFESRVVVVCEKMMSRACWAKSKHLIHSKTFRGMTLLHLAAAQGYATLIQTLIKWRTKHADSIDLELEVDPLNVDHFSCTPLMWACALGHLEAAVVLYKWDRRAISIPDSLGRLPLGIARSRGHVKLAECLEHLQRDEQAQLGQNPRIHCPASEEPSTESWMAQWHSEAISSPEIPKGVTVIASTNPELRRPRSEPSNYYSSESHKDYPAPKKHKLNPEYFQTRQEKLLPTALSLEEPNIRKQSPSSKQSVPETLSPSEGVRDFSRELSPPTPETAAFQASGSQPVGKWNSKDLYIGVSTVQVTGNPKGTSVGKEAAPSQVRPREPMSVLMMANREVVNTELGSYRDSAENEECGQPMDDIQVNMMTLAEHIIEATPDRIKQENFVPMESSGLERTDPATISSTMSWLASYLADADCLPSAAQIRSAYNEPLTPSSNTSLSPVGSPVSEIAFEKPNLPSAADWSEFLSASTSEKVENEFAQLTLSDHEQRELYEAARLVQTAFRKYKGRPLREQQEVAAAVIQRCYRKYKQYALYKKMTQAAILIQSKFRSYYEQKKFQQSRRAAVLIQKYYRSYKKCGKRRQARRTAVIVQQKLRSSLLTKKQDQAARKIMRFLRRCRHSPLVDHRLYKRSERIEKGQGT
B9: RXRA, P19793 (protein)
chain: MDTKHFLPLDFSTQVNSSLTSPTGRGSMAAPSLHPSLGPGIGSPGQLHSPISTLSSPINGMGPPFSVISSPMGPHSMSVPTTPTLGFSTGSPQLSSPMNPVSSSEDIKPPLGLNGVLKVPAHPSGNMASFTKHICAICGDRSSGKHYGVYSCEGCKGFFKRTVRKDLTYTCRDNKDCLIDKRQRNRCQYCRYQKCLAMGMKREAVQEERQRGKDRNENEVESTSSANEDMPVERILEAELAVEPKTETYVEANMGLNPSSPNDPVTNICQAADKQLFTLVEWAKRIPHFSELPLDDQVILLRAGWNELLIASFSHRSIAVKDGILLATGLHVHRNSAHSAGVGAIFDRVLTELVSKMRDMQMDKTELGCLRAIVLFNPDSKGLSNPAEVEALREKVYASLEAYCKHKYPEQPGRFAKLLLRLPALRSIGLKCLEHLFFFKLIGDTPIDTFLMEMLEAPHQMT
B10: HIPK2, Q9H2X6 (protein)
chain: MAPVYEGMASHVQVFSPHTLQSSAFCSVKKLKIEPSSNWDMTGYGSHSKVYSQSKNIPLSQPATTTVSTSLPVPNPSLPYEQTIVFPGSTGHIVVTSASSTSVTGQVLGGPHNLMRRSTVSLLDTYQKCGLKRKSEEIENTSSVQIIEEHPPMIQNNASGATVATATTSTATSKNSGSNSEGDYQLVQHEVLCSMTNTYEVLEFLGRGTFGQVVKCWKRGTNEIVAIKILKNHPSYARQGQIEVSILARLSTESADDYNFVRAYECFQHKNHTCLVFEMLEQNLYDFLKQNKFSPLPLKYIRPVLQQVATALMKLKSLGLIHADLKPENIMLVDPSRQPYRVKVIDFGSASHVSKAVCSTYLQSRYYRAPEIILGLPFCEAIDMWSLGCVIAELFLGWPLYPGASEYDQIRYISQTQGLPAEYLLSAGTKTTRFFNRDTDSPYPLWRLKTPDDHEAETGIKSKEARKYIFNCLDDMAQVNMTTDLEGSDMLVEKADRREFIDLLKKMLTIDADKRITPIETLNHPFVTMTHLLDFPHSTHVKSCFQNMEICKRRVNMYDTVNQSKTPFITHVAPSTSTNLTMTFNNQLTTVHNQAPSSTSATISLANPEVSILNYPSTLYQPSAASMAAVAQRSMPLQTGTAQICARPDPFQQALIVCPPGFQGLQASPSKHAGYSVRMENAVPIVTQAPGAQPLQIQPGLLAQQAWPSGTQQILLPPAWQQLTGVATHTSVQHATVIPETMAGTQQLADWRNTHAHGSHYNPIMQQPALLTGHVTLPAAQPLNVGVAHVMRQQPTSTTSSRKSKQHQSSVRNVSTCEVSSSQAISSPQRSKRVKENTPPRCAMVHSSPACSTSVTCGWGDVASSTTRERQRQTIVIPDTPSPTVSVITISSDTDEEEEQKHAPTSTVSKQRKNVISCVTVHDSPYSDSSSNTSPYSVQQRAGHNNANAFDTKGSLENHCTGNPRTIIVPPLKTQASEVLVECDSLVPVNTSHHSSSYKSKSSSNVTSTSGHSSGSSSGAITYRQQRPGPHFQQQQPLNLSQAQQHITTDRTGSHRRQQAYITPTMAQAPYSFPHNSPSHGTVHPHLAAAAAAAHLPTQPHLYTYTAPAALGSTGTVAHLVASQGSARHTVQHTAYPASIVHQVPVSMGPRVLPSPTIHPSQYPAQFAHQTYISASPASTVYTGYPLSPAKVNQYPYI

Some of the results follow. Binding of human transcription factors and regulators to the viral nucleoprotein by AlphaScreen, crude cell-free proteins, amounts not normalised, one pass. Fold of the Venus control; higher = more signal. No active / inactive call. Single-pass screen; sequences are the whole Swiss-Prot entries looked up by name.

The target in the experiment is nucleoprotein N of Crimean-Congo hemorrhagic fever virus. The experiment can be described thus: AlphaScreen luminescence signal relative to Venus negative control (fold); higher = stronger binding to CCHFV N. Here is the method:
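AlphaScreen binding of cell-free made, FLAG-GST-tagged human transcription factors and regulators (crude translation products) to biotinylated N protein; signal as fold of the FLAG-GST-Venus control. One pass.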
Background: In Alpha technology, singlet oxygen from a donor bead excites a nearby acceptor bead.
The molecule B1 registered an AlphaScreen luminescence signal of 2.42.

B2 registered an AlphaScreen luminescence signal of 1.63.

The molecule B3 came in with an AlphaScreen luminescence signal of 1.53.

On to B4, for which the AlphaScreen luminescence signal came out at 3.21.

B5 came in with an AlphaScreen luminescence signal of 4.47.

B6: the AlphaScreen luminescence signal is 2.42.

As for B7, the AlphaScreen luminescence signal amounted to 2.23.

Take B8: the AlphaScreen luminescence signal was 1.67.

For the molecule B9, the AlphaScreen luminescence signal was 1.72.

In turn, B10 yielded an AlphaScreen luminescence signal of 2.09.

(Values after the supplement of paper PMC12423691.)
